From PubChem BioAssay AID624417 (National Center for Advancing Translational Sciences (NCATS), 2012)
In all, about 410,000 compounds went through this assay and about 6,400 (1.6%) were called active. Inconclusive means that the source gave no clear call. Such entries were picked first, then a sample of the others. The call rests on the fitted dose curve; in most records, active means well fitted inhibition curve with a large enough effect; inconclusive means small, poorly fitted or top-dose-only effect; inactive means no such curve, though single readings can be large or run the other way. Potencies of inconclusive entries are left out as doubtful fits.
Further: nearly all actives have a fitted effect of over 55% in size.
On the % scale 0 is the no-effect control and ±100 the full control effect; potency means the concentration at half of the fitted maximal effect; tags describe the fitted curve by direction and shape.

The compounds below were run against Glucagon-like peptide 1 receptor (Homo sapiens) (UniProt P43220) (assay: qHTS of GLP-1 Receptor Inverse Agonists (Inhibition Mode)). Conditions: HEK293 GLP-1R CRE-luciferase, luminescence, 24 h, GLP-1R form is constitutively active; activity change, negative = inhibition: at 38.3 µM (top of the series) unless noted.
Chain of UniProt P43220 (P43220 whole entry, looked up): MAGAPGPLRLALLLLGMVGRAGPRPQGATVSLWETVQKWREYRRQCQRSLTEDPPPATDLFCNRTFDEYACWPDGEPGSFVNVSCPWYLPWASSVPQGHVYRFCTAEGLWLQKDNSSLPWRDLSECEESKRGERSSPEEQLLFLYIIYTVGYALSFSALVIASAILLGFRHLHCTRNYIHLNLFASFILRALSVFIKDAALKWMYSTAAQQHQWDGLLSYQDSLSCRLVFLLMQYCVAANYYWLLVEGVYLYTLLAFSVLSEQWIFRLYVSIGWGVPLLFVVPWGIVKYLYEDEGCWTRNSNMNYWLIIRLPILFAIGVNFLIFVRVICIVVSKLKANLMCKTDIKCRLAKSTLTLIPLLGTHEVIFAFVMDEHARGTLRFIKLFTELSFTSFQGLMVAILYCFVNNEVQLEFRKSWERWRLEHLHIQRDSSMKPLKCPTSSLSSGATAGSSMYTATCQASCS
How it was run: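 Cells are plated, allowed 12 hours at 37 deg C, then treated with compounds for 24 hr before luciferase detection reagent is added and luminescence is read after 12 min at room temperature. The HEK293 line carries constitutively active GLP-1R with a cAMP-responsive reporter.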
In the case of `CC1(C)CN(Cc2ccccc2)C(=O)[C@H]1CC(=O)Nc1ccc(Br)cc1`, the Potency was inconclusive [inhibitor, single point].
`CSc1ccc(CN2CCN(CC=C(C)C)C(CCO)C2)cc1` (stereo not given) was tested, and the Potency was inconclusive [inhibitor, single point].
In the case of `CCOc1ccc(S(=O)(=O)Oc2ccc3ccccc3c2)cc1`, the Potency was inconclusive [inhibitor, single point].
For `Cc1sc(NC(=S)NC(=O)c2ccc(C(C)(C)C)cc2)c(C#N)c1C`, the “activity change, negative = inhibition” value was inactive: -5.08%.
With `CCc1ccc2oc(-c3ccc(OC)cc3)cc(=Nc3c(C)n(C)n(-c4ccccc4)c3=O)c2c1` the Potency was active: 10 µM.
`CCCN(CCC)CCCNC(=O)Cn1cnc2onc(-c3ccc(F)cc3)c2c1=O` was tested, and the Potency was inconclusive [inhibitor, partial curve, poor fit].
With `O=C(NCc1ccc(F)cc1)c1cc(C2CCCCN2S(=O)(=O)c2ccc(F)cc2F)on1` (stereo not given) the Potency was inconclusive [inhibitor, single point].
For `Cc1ccc(S(=O)(=O)N2CCCCC2)cc1NC(=O)Cn1cc(C(F)(F)F)ccc1=O`, the Potency was inconclusive [inhibitor, partial curve, poor fit].
In the case of `Cc1ccc(SC(=O)COc2ccc(C)c(C)c2)cc1`, the Potency was inconclusive [inhibitor, partial curve, poor fit].
With `CCNC(=O)c1ccc(CSc2ccc(Cl)cc2)cc1` the “activity change, negative = inhibition” value was inactive: -18.6%.
In the case of `O=C(Cc1ccc(F)cc1)Nc1nccs1`, the “activity change, negative = inhibition” value was inactive: -9.98%.
With `COc1cccc(NC(=O)CSc2nc3ccc(NC(=O)c4ccco4)cc3s2)c1` the “activity change, negative = inhibition” value was inactive: -14.6%.
`Cc1noc(C)c1C(=O)OCC(=O)Nc1cccc(S(=O)(=O)N(C)C)c1` was tested, and the “activity change, negative = inhibition” value was inactive: 0.764%.
With `CCCCSc1nc(NCc2ccco2)c2c3c(sc2n1)COC(C)(C)C3` the Potency was inconclusive [inhibitor, full curve, poor fit].
In the case of `COc1cccc(C(N)c2nc(-c3cc(F)cc(F)c3)cs2)c1` (stereo not given), the Potency was inconclusive [inhibitor, single point].
In the case of `Cc1ccc(C)c(N(C(=O)CS(=O)CC(=O)Nc2ccc3c(c2)OCO3)C(C)C(=O)NC2CCCC2)c1` (stereo not given), the Potency was inconclusive [inhibitor, partial curve, poor fit].
With `O=C1C(Nc2ccccc2)=CC(c2ccc(O)cc2)N1c1ccccc1` (stereo not given) the Potency was inconclusive [inhibitor, full curve, poor fit].
`CCOC(=O)c1ccc(N2C(=O)c3[nH]nc(-c4ccc(OCC)cc4)c3C2c2ccc(OC)cc2OC)cc1` (stereo not given) was tested, and the “activity change, negative = inhibition” value was inactive: -10.2%.
For `COc1ccc2cc(C(=O)N/N=C/c3cc(OC)c(OC)c(OC)c3)[nH]c2c1`, the Potency was inconclusive [inhibitor, single point].
In the case of `COc1cc(C(=O)C(=O)N2CCC(Cc3ccccc3)CC2)cc2ccccc12`, the Potency was inconclusive [inhibitor, single point].
`COc1ccccc1CNC1CCN(Cc2ccccc2)CC1` was tested, and the Potency was inconclusive [inhibitor, partial curve, poor fit].
`CN(C)CCNC(=O)c1ccc2c(c1)NC(=O)c1ccccc1S2` was tested, and the Potency was inconclusive [inhibitor, single point].
In the case of `COc1ccccc1CNC(=O)Cc1ccc(C)cc1`, the Potency was inconclusive [inhibitor, partial curve, poor fit].
`O=C(Cc1ccccc1)N(Cc1cccnc1)c1nc2ccc(F)cc2s1` was tested, and the Potency was inconclusive [inhibitor, partial curve, poor fit].
With `CCN(CC(=O)NC(=O)NCc1ccccc1)Cc1nc2ccccc2c(=O)[nH]1` the Potency was inconclusive [inhibitor, single point].
`C=CCn1c(SCC(=O)c2ccc(F)cc2)nnc1-c1ccc2c(c1)OCO2` was tested, and the Potency was inconclusive [inhibitor, full curve].
For `Cc1sc2nc(SCC(=O)Nc3ccc(Cl)c(C(=O)O)c3)[nH]c(=O)c2c1C`, the Potency was inconclusive [inhibitor, single point].
For `C[C@H]1CN([C@@H](C)CO)C(=O)Cc2cc(NC(=O)Cc3ccccc3)ccc2O[C@H]1CN(C)C(=O)Nc1cccc2ccccc12`, the Potency was inconclusive [inhibitor, partial curve, poor fit].
`Cc1cccc(N2C(=O)c3cccc(Oc4ccc(Cl)cc4)c3C2=O)c1` was tested, and the Potency was inconclusive [inhibitor, single point].
With `CCC(C)N1C(=O)S/C(=C/c2ccc(N3CCOCC3)cc2C)C1=O` (stereo not given) the Potency was inconclusive [inhibitor, single point].
For `CCCONC(=O)Nc1ccccc1[N+](=O)[O-]`, the “activity change, negative = inhibition” value was inactive: 21.7%.
In the case of `Cc1ccc(CNC(=O)CCC(=O)N2CC(C)Oc3ccc(Cl)cc32)cc1` (stereo not given), the Potency was inconclusive [inhibitor, single point].
In the case of `COc1ccc(-c2cc(OC)c3ccccc3n2)cc1`, the Potency was inconclusive [inhibitor, single point].
In the case of `CN1OC[C@@H]2CN[C@H](c3ccc(-c4ccc(C#N)cc4)cc3)C[C@@H]21`, the Potency was inconclusive [inhibitor, partial curve, poor fit].
`Cc1cc(C(=O)N[C@H](c2ccccc2)[C@@]2(C)C[C@@H]2[C@@H](C)C(=O)Nc2ccc3ccccc3c2)n(C)n1` was tested, and the Potency was active: 10 µM.
For `CC(C)(C)c1cc(OS(C)(=O)=O)ccc1O`, the Potency was inconclusive [inhibitor, single point].
For `O=S(=O)(Nc1nc2ccccc2nc1NCc1ccco1)c1ccc(Cl)cc1`, the Potency was inconclusive [inhibitor, partial curve, poor fit].
In the case of `CCCN(CCC)S(=O)(=O)c1ccc(Cl)c([N+](=O)[O-])c1`, the Potency was inconclusive [inhibitor, single point].
`Cc1ccccc1C(=O)Nc1cccc(NC(=S)NC(=O)c2cccs2)c1` was tested, and the Potency was inconclusive [inhibitor, single point].
For `O=C(O)C1CCCCC1C(=O)N1CC=C(c2ccccc2)CC1` (stereo not given), the Potency was inconclusive [inhibitor, partial curve].
